Hit rate of the full screen: of about 45,000 compounds, about 65 (0.1%) were called active. The call rests on the fitted dose curve; in most records, active means well fitted activation curve with a large enough effect; inconclusive means small, poorly fitted or top-dose-only effect; inactive means no such curve, though single readings can be large or run the other way. The list shows a part of the results.
target: Galactocerebrosidase (Homo sapiens) (UniProt P54803); assay: A Novel Cell-Based Assay to Identify Small Molecules for B -Galactocerebrosidase; settings: 145M-Twi-hGALC-G270D cells (Twitcher mouse brain line with human GALC G270D), HMU-beta-Gal fluorescence, 48 h; series mostly up to 57.5 µM; activation: at the top concentration; further: 0% is about no effect; nearly all actives have a fitted effect of over 65% in size
Method in brief: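 Live 145M-Twi cells (Twitcher mouse brain-derived, GALC-null) stably expressing human GALC-G270D, with a wild-type GALC line, were compound-treated. Residual GALC activity was then read as fluorescence from 0.1 mM final HMU-β-gal at pH 5.2; higher signal means activation.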

Chain of UniProt P54803 (P54803 whole entry, looked up): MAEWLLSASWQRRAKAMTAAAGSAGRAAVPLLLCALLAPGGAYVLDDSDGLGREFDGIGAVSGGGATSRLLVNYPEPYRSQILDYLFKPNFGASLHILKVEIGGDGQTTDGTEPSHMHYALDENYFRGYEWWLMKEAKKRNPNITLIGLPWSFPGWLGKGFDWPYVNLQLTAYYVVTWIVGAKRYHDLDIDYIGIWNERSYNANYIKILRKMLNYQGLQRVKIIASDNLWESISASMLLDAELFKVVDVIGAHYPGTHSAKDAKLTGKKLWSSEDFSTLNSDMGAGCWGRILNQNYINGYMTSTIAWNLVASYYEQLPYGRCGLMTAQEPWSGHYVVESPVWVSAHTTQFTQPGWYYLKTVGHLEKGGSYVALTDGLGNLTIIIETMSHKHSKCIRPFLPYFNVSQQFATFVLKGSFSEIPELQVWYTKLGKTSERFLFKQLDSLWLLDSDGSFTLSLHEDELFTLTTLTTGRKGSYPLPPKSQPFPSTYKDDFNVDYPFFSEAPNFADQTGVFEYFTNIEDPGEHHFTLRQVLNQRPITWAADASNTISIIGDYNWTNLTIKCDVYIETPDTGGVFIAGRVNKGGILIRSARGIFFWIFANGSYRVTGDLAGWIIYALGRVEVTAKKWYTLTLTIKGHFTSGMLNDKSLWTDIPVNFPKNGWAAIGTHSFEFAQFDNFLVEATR

activation, inactive:
CCCCn1cc(S(=O)(=O)c2ccc(C)cc2)c(=O)c2cc(F)c(N3CCCCC3)cc21 -5.09%
COc1ccccc1-c1nc2n(n1)C(c1ccccc1Cl)C(C(=O)Nc1cccnc1)=C(C)N2 (stereo not drawn) -10.7%
CC(=O)N1c2ccccc2C(=O)C1N1CCN(c2ccccc2F)CC1 (stereo not drawn) -6.37%
CCC(C(=O)Nc1cccc(Cl)c1C)n1nc(C)c2sc3ccccc3c2c1=O (stereo not drawn) -8.49%
COc1ccc(-c2noc(CN(C)S(=O)(=O)c3c(C)cc(C)cc3C)n2)cc1OC -13.1%
COc1ccc(C)cc1NC(=O)c1ccc(NS(=O)(=O)c2c(C)noc2C)cc1 -14.2%
Cc1ccc(-c2nc(CCNC(=O)c3ccc(C)c(C)c3)cs2)cc1 16.6%
CCOC(=O)c1cnc2cc(C(F)(F)F)ccc2c1Nc1cc(C)ccc1OC -35.6%
CCOC(=O)c1ccc(NC2=CC(c3ccc(OCC)cc3)N(c3ccc(C(=O)OCC)cc3)C2=O)cc1 (stereo not drawn) -12.2%
Cc1ccc(S(=O)(=O)c2c(O)cc(C)c(NS(=O)(=O)c3ccc(Br)cc3)c2C)cc1 -24.7%
CCSc1nn(CC(=O)Nc2cccc(CC)c2)c(N)c1S(=O)(=O)c1ccccc1 -29.8%
Cc1oc(-c2ccc(Cl)cc2)nc1CN1CCCC(C(=O)NCCc2ccc(Cl)cc2)C1 (stereo not drawn) -10.2%
COCCCNC(=O)C1CCN(Cc2cc3ccccc3n2Cc2ccccc2C)CC1 -3.31%
O=C(CSc1nnc(-c2ccccc2Cl)o1)N1CCCc2ccccc21 -10.8%
CCCCCN(CCCOC)C(=O)C(CCC(=O)O)NC(=O)c1ccc(Cl)c(Cl)c1 (stereo not drawn) -17.2%
COc1ccc(NC(=O)c2c(NCc3cccs3)sc3c2CCC(C)C3)c(OC)c1 (stereo not drawn) -16%
CC(=O)N1CCc2cc(Br)cc(S(=O)(=O)CCC(=O)N3CCN(c4ccc(F)cc4)CC3)c21 1.36%
Cc1c(C(=O)N(Cc2ccccc2F)C2CCS(=O)(=O)C2)oc2ccccc12 (stereo not drawn) -13%
CCOc1ccc(C(=O)c2cn(CC(=O)Nc3ccc(Cl)cc3)c3cc4c(cc3c2=O)OCO4)cc1 -6.43%
COc1ccc(-c2nnc(SCC(=O)Nc3cccc(C(F)(F)F)c3)s2)cc1 -33.8%
COc1ccc(S(=O)(=O)NCC(c2cccs2)S(=O)(=O)c2ccccc2)cc1OC (stereo not drawn) -3.5%
Cc1nn(C)c2c1c(C(F)(F)F)cc(=O)n2C(C)C(=O)Nc1ccccc1F (stereo not drawn) -27.9%
COc1cc(/C=C/c2nc(C#N)c(N3CCN(C)CC3)o2)cc(OC)c1OC -7.23%
Cc1ccc(CN2CCC(CNC(=O)c3cnn(-c4ccccc4Cl)c3C3CCN(C(=O)OC(C)(C)C)CC3)CC2)cc1 -11.6%
CSc1cccc(NC(=O)C2CCN(c3nc4ccccc4[nH]3)CC2)c1 -8.68%
Cc1ccc(Cn2c(SCc3ccc(C(=O)NC4CCCCC4)cc3)nc3ccncc32)cc1 -8.96%
COc1ccc(Cl)c2sc(NC(=O)c3ccc(S(=O)(=O)N4CCOCC4)cc3)nc12 -16.9%
CCc1ccc(NC(=O)Cn2c(=O)n(-c3ccc(Cl)c(Cl)c3)c(=O)c3c(C)c(C)sc32)cc1 -4.74%
Cc1c(-c2nc(-c3ccccc3)no2)nnn1-c1ccc(F)c(Cl)c1 -17.3%
COc1cccc(NS(=O)(=O)c2ccc3c(c2)n(C)c(=O)n3C)c1 -12.4%
COc1ccc(NC(=O)COCc2cc(-c3ccc4c(c3)OCO4)on2)cc1 -4.26%
CN(C(=O)c1ccc2c(c1)N(Cc1cccc(Cl)c1)C(=O)c1ccccc1S2(=O)=O)C1CCCCC1 -18.6%
CCOC(=O)C(CC)n1nnc2sc(-c3ccccc3)cc2c1=O (stereo not drawn) -11.2%
CC(=O)c1cccc(NC(=O)CSc2nnc3ccc(-c4ccc(Br)cc4)nn23)c1 -12.2%
O=C(NCCS(=O)(=O)N1CCN(c2ccc(F)cc2)CC1)C(c1ccccc1)c1ccccc1 -18.7%
Fc1ccc(C(c2nnc(-c3ccccc3)o2)N2CCN(c3cccc(Cl)c3)CC2)cc1 (stereo not drawn) -5.62%
CCc1ccccc1NC(=O)CSc1nncn2c1cc1oc(C)cc12 -15.8%
CCOc1ccc(NC(=O)CSc2cn(CCNC(=O)c3ccccc3F)c3ccccc23)cc1 -6.7%
Cn1c2ccccc2c2cnn(CC(=O)NCCCN3CCCCC3)c(=O)c21 -10.2%
COc1ccc(CN2C(=O)C(NC(=O)c3cccc(C)c3)(C(F)(F)F)N=C2c2ccccc2)cc1 (stereo not drawn) -3.28%
Cc1ccc(CNC(=O)CSc2nc3c(sc4ccccc43)c(=O)n2CCCOC(C)C)cc1 -6.45%
COc1ccc(OC)c(CCNC(=O)c2cc3c(s2)-c2c(C)cccc2OC3)c1 -8.49%
Cc1ccc(-n2c(=O)c3sc4ccccc4c3n(CC(=O)NC3CCCC3)c2=O)cc1C -13.3%
Cc1ccc(NC(=O)Cn2c(=O)n(Cc3ccccc3)c(=O)c3sc4ccccc4c32)cc1 -9.82%
Cc1ccc(Nc2c(-c3c[nH]c4ccccc34)nc3ccccn23)cc1 -13.7%
Cc1ccc2oc(=O)c3cnn(CC(=O)N4CCN(c5ccc(F)cc5)CC4)c3c2c1 -14.9%
CC(C)Oc1ccccc1-c1nc(SCC(=O)c2ccc(F)cc2)n[nH]1 -0.0033%
CCOc1ccc(CNC(=O)c2ccc3c(c2)c(C)c(C)n3Cc2ccccc2)cc1OC -9.36%
CCS(=O)(=O)c1ncc(N(Cc2ccccc2)Cc2ccco2)c(C(=O)Nc2cccc(Cl)c2C)n1 -21.6%
COc1ccccc1C(=O)Nc1ccc2nc(SCC(=O)N(C)c3ccccc3)sc2c1 -2.97%
Cc1c(Cl)cccc1-c1ccc(CNCCSc2nnnn2-c2ccccc2)o1 -13.5%
CCOc1ccc(NC(=O)C(Cc2ccccc2)NS(=O)(=O)c2ccc3c(c2)oc(=O)n3C)cc1 (stereo not drawn) 17.3%
O=C(CN1C(=O)C2(SCC(=O)N2c2cccc(Cl)c2)c2ccccc21)NCCc1ccccc1 (stereo not drawn) -21.8%
CCOc1ccc(NC(=O)c2c(Nc3ccccc3C)sc(C(=O)c3ccccc3)c2N)cc1 -3.81%
CCN(CC)S(=O)(=O)c1ccc(NC(=O)CN(c2ccccc2)S(=O)(=O)N(C)C)cc1 -18.6%
Cc1ccc(-n2ncc(C(=O)N3CCN(c4cc(Cl)ccc4C)CC3)c2C2CCN(C(=O)OC(C)(C)C)CC2)cc1 -6.18%
Cc1ccc(C)c(Cn2c3ccccc3c3cnn(CC(=O)NC(C)CCc4ccccc4)c(=O)c32)c1 (stereo not drawn) -17%
COc1ccc(CCNC(=O)c2ccc3c(c2)N(Cc2ccccc2)C(=O)c2ccccc2S3=O)cc1OC (stereo not drawn) 6.07%
COC(=O)c1ccc(Cl)cc1NC(=O)Nc1nnc(N2CCCC2)s1 -19.1%
Cc1cccc(OCC(=O)Nc2ccccc2C(=O)OCc2cc(=O)n3ccsc3n2)c1 -19.1%
Cc1cccc(CNC(=O)Cn2c(-c3cccs3)cc3ccccc32)c1 13.7%
COc1cccc(NC(=O)CN2C(=O)c3cccc4cccc2c34)c1 -8.96%
Cn1ncc2c(Nc3cc(C(F)(F)F)ccc3Cl)ncnc21 -11.7%
COC(=O)CSc1ncc2c(n1)-c1ccccc1N(Cc1ccc(Cl)cc1)S2(=O)=O -36.8%
COc1ccc(CCn2c3c(c(=O)[nH]c2=O)C(NC(=O)c2ccc(Cl)cc2)(C(F)(F)F)C(=O)N3)cc1OC (stereo not drawn) -11.2%
COc1ccc(CNc2ncnc3c2nc2n3CCCC2)cc1 5.64%
COc1ccc2c(c1)c1c(c(=O)n(-c3ccccc3C)c(=O)n1Cc1cccc(C(F)(F)F)c1)n2C -13.6%
CC(C)OC(=O)c1ccc(Cn2nnc3sc4c(c3c2=O)CCCC4)cc1 -7.03%
CC1CCN(C(=O)CSc2n[nH]c(-c3ccc(F)cc3)n2)CC1 -6.46%
CCc1ccc(-n2nnc(-c3nc(-c4cccs4)no3)c2N)cc1 -6.86%
CCCN(c1c(C)n(C)n(-c2ccccc2)c1=O)S(=O)(=O)c1ccc(C)cc1 -13.2%
O=C(Cn1ccnc1[N+](=O)[O-])NCCO -10.5%
CC(NC(=O)c1ccc2c(c1)N(Cc1ccc(Cl)cc1)C(=O)CS2)c1ccccc1 (stereo not drawn) -8.16%
CCN(c1cccc(C)c1)S(=O)(=O)c1cc(Br)cc2c1N(C(C)=O)C(C)C2 (stereo not drawn) -12.1%
CC(=O)Nc1ccc(S(=O)(=O)NC2(C(F)(F)F)C(=O)Nc3c2c(=O)[nH]c(=O)n3-c2cccc(Cl)c2)cc1 (stereo not drawn) -10.7%
CCOC(=O)c1cnc2cc(C(F)(F)F)ccc2c1Nc1ccc(F)cc1F -25.1%
CCC(=O)N1CCc2cc(CNS(=O)(=O)c3cc(OC)ccc3OC)ccc21 -10.6%
Cc1ccc(S(=O)(=O)NCC2CCC(C(=O)NCCc3ccccc3)CC2)cc1 (stereo not drawn) -15.3%
CCc1nc2ccc(C(=O)N3CCN(c4cc(Cl)ccc4C)CC3)cc2nc1CC -15.1%
CC(C)(C)C(=O)Nc1ccc(-c2nc3ccc(NC(=O)C(C)(C)C)cc3[nH]2)cc1 -21.1%
Oc1ccc(Cl)cc1C1=Nc2ccccc2N=C(c2ccccc2)C1 3.11%
Cc1ccc(CSc2nc3cccnc3n2Cc2ccc(C(=O)NCc3ccco3)cc2)cc1 -11%
O=C(c1ccc(F)cc1)c1cn(Cc2ccccc2F)c2cc3c(cc2c1=O)OCCO3 -17.8%
Cc1cccc(-c2nc(CN3CCCC(C(=O)N4CCN(c5cc(Cl)ccc5C)CC4)C3)c(C)o2)c1 (stereo not drawn) -9.28%
COc1cccc(-n2c(SCc3cccc(C)c3)nc3c([nH]c4ccccc43)c2=O)c1 -9.23%
CCOCc1cc(CN2CCN(c3cccc(C(F)(F)F)c3)CC2)c(O)c2ncccc12 -12.2%
CCOc1ccc(-n2ccnc2SCC(=O)Nc2cc(C)ccc2C)cc1 -11.6%
O=C(C1CCC1)N1CCCc2cc(S(=O)(=O)N3CCN(c4cccc(Cl)c4)CC3)ccc21 -17.1%
Cc1onc(-c2ccccc2Cl)c1C(=O)Oc1ccc(Cl)cc1Cl -5.98%
CCOc1ccccc1NC(=O)COC(=O)CC(C)(C)CC1=NS(=O)(=O)c2ccccc2N1 -8.25%
Cc1ccc(C)c(NC(=O)C(=O)NCCCN2CCOCC2)c1 -10.6%
CCOc1ccc(CCNC(=O)c2cnc3c(-c4ccc(F)cc4)c(C)nn3c2C)cc1 -4.53%
O=C(NCCCN1CCN(c2ccccc2)CC1)c1sc2ncccc2c1-n1cccc1 -15.8%

Reference: PubChem BioAssay AID1159614 (National Center for Advancing Translational Sciences (NCATS), 2016)
